The text below walks through data of US20160229915A1 (Chugai, published 2016).

Where a chain is given by its changes, count along the chain named. Numbers in names are those of the source.

T1: human FcgRIIa, allotype H (H131), extracellular domain, C-terminal His tag (human, UniProt P12318 34-217)
T1 construct: extracellular domain; also called hFcgRIIaH; FcγRIIa H type; not shown: C-terminal His tag
T1 sequence (looked up): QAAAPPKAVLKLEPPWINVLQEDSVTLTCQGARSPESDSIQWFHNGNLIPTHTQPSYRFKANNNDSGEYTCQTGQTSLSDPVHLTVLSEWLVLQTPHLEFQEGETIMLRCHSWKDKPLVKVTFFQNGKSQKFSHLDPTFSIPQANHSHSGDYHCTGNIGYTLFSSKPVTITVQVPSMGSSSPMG

T2: human FcgRIIb extracellular domain, C-terminal His tag (human, UniProt P31994 43-217)
T2 construct: extracellular domain; also called hFcgRIIb; FcγRIIb; not shown: C-terminal His tag
T2 sequence (looked up): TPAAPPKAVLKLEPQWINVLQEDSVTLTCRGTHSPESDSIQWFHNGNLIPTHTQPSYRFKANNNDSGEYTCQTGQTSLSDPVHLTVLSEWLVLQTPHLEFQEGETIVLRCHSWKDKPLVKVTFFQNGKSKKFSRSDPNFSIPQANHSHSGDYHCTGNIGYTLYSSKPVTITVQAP

T3: human FcgRIIa, allotype R (R131), extracellular domain, C-terminal His tag (human, UniProt P12318 34-217)
T3 construct: extracellular domain; also called hFcgRIIaR; FcγRIIa R type; not shown: C-terminal His tag
T3 sequence (looked up): T1 sequence (looked up) with H134R

B1: MRAH-G1dP1/MRAL-k0 (antibody, human IgG1, kappa)
heavy: QVQLQESGPGLVRPSQTLSLTCTVSGYSITSDHAWSWVRQPPGRGLEWIGYISYSGITTYNPSLKSRVTMLRDTSKNQFSLRLSSVTAADTAVYYCARSLARTTAMDYWGQGSLVTVSS[human IgG1 constant region with D356K (EU numbers) not spelt out]
light: DIQMTQSPSSLSASVGDRVTITCRASQDISSYLNWYQQKPGKAPKLLIYYTSRLHSGVPSRFSGSGSGTDFTFTISSLQPEDIATYYCQQGNTLPYTFGQGTKVEIKRTVAAPSVFIFPPSDEQLKSGTASVVCLLNNFYPREAKVQWKVDNALQSGNSQESVTEQDSKDSTYSLSSTLTLSKADYEKHKVYACEVTHQGLSSPVTKSFNRGEC
notes: Homo variant with D356K (EU numbering) in G1d, lacking V397Y
B2: H54-G1dN17/L28-k0 (antibody, human IgG1, kappa)
heavy: QVQLQESGPGLVKPSETLSLTCAVSGYSISDDQAWSWVRQPPGEGLEWIGYISYSGITNYNPSLKGRVTISRDTSKNQFSLKLSSVTAADTAAYYCARSLARTTAMDYWGEGTLVTVSS[human IgG1 constant region with V397Y K439E (EU numbers) not spelt out]
light: B1 light with R18S, R24Q, K45E, T51G, R53E, Q79E, P80A, I83A, T93S, K107E
notes: Homo variant before Fab arm exchange; V397Y/K439E (EU numbering) in G1d
B3: MRAH-G1dP17/MRAL-k0//H54-G1dN17/L28-k0 (bispecific antibody, human IgG1, kappa)
heavy 1: QVQLQESGPGLVRPSQTLSLTCTVSGYSITSDHAWSWVRQPPGRGLEWIGYISYSGITTYNPSLKSRVTMLRDTSKNQFSLRLSSVTAADTAVYYCARSLARTTAMDYWGQGSLVTVSS[human IgG1 constant region with D356K V397Y (EU numbers) not spelt out]
light 1: B1 light
heavy 2: B2 heavy
light 2: B1 light with R18S, R24Q, K45E, T51G, R53E, Q79E, P80A, I83A, T93S, K107E
notes: Product of Fab arm exchange between MRAH-G1dP17/MRAL-k0 (D356K/V397Y) and H54-G1dN17/L28-k0 (V397Y/K439E); also called G1dP17/N17; altered form after Fab arm exchange
B4: MRAH-G1dP17/MRAL-k0 (antibody, human IgG1, kappa)
heavy: B3 heavy 1
light: B1 light
notes: Homo variant before Fab arm exchange; D356K/V397Y (EU numbering) in G1d
B5: H54-G1dN1/L28-k0 (antibody, human IgG1, kappa)
heavy: QVQLQESGPGLVKPSETLSLTCAVSGYSISDDQAWSWVRQPPGEGLEWIGYISYSGITNYNPSLKGRVTISRDTSKNQFSLKLSSVTAADTAAYYCARSLARTTAMDYWGEGTLVTVSS[human IgG1 constant region with K439E (EU numbers) not spelt out]
light: B1 light with R18S, R24Q, K45E, T51G, R53E, Q79E, P80A, I83A, T93S, K107E
notes: Homo variant with K439E (EU numbering) in G1d, lacking V397Y

The first assay concerns the target T1, human FcgRIIa, allotype H (H131), …. As to the kind of experiment: SPR (Biacore); relative binding activity, KD of G1d defined as 1. The method, then:
(§1) Next, the binding activity against human FcgR was evaluated according to the method of Reference Example 4. In this context, MRAH-G1 d/MRAL-k0 having the sequence of naturally occurring IgG1, the altered form MRAH-G1dP17/MRAL-k0//H54-G1dN17/L28-k0 after Fab arm exchange, two types of homo variants before Fab arm exchange reaction (MRAH-G1dP17/MRAL-k0 and H54-G1dN17/L28-k0), and two types of homo variants lacking the alteration V397Y to destabilize CH3 domains (MRAH-G1dP1/MRAL-k0 and H54-G1dN1/L28-k0) were evaluated together. In Table 8, KD fold hFcgRIa, KD fold hFcgRIIaR, KD fold hFcgRIIaH, KD fold hFcgRIIb, and KD fold hFcgRIIIaV are values that indicate the relative binding activity of each altered form when KD of G1d for each FcgR is defined as 1.
(§2) The antibody of interest was captured onto these sensor chips and allowed to interact with the Fcγ receptor diluted with a running buffer. The binding amount to the antibody was measured and compared among antibodies. Since the binding amount of the Fcγ receptor depends on the amount of the captured antibody, a correction value determined by dividing the binding amount of the Fcγ receptor by the amount of each captured antibody was used in the comparison. The antibody captured on the sensor chip was washed off through the reaction of 10 mM glycine-HCl (pH 1.5) to regenerate the sensor chip, which was repetitively used.
(In general: In SPR one partner is held on a chip, and binding of the other changes the refractive index at the surface.)
Turning to B1, the “KD fold hFcgRIIaH” value is 0.9 fold.
Still for that read-out and setting: as for B2, the figure is 2.2 fold; as for B3, 2.3 fold; as for B4, 2.1 fold.
Same read-out and setting: in the case of B5 it was 0.9 fold.

A further assay deals with T2, human FcgRIIb extracellular domain, …. Described as above. The method, then:
as §1, §2
Consider B1, for which the “KD fold hFcgRIIb” value turned out to be 0.9 fold.
On the same count and under the same terms, in the case of B2 it was 2.6 fold; in that of B3, 2.5 fold.
The same measure, in the same setting: as for B4, the figure is 2.3 fold; as for B5, 0.9 fold.

Another assay addresses T4, human FcgRIIIa, allotype V (V158), extracellular domain, C-terminal His tag (human, UniProt P08637 partial chain).
T4 construct: extracellular domain; also called hFcgRIIIaV; FcγRIIIa V158; not shown: C-terminal His tag
T4 sequence (P08637 17-208 F176V): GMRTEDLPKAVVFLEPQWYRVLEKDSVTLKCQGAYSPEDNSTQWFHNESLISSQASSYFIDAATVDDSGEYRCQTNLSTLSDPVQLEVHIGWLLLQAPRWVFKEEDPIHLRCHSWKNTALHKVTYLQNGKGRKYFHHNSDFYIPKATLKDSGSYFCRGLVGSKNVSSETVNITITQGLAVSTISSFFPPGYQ
The assay is described as above. The method, then: as §1, §2
B1: the “KD fold hFcgRIIIaV” value is 1 fold.
The same measure, in the same setting: in the case of B2 it was 2.5 fold; in that of B3, 2.5 fold.
Still for that read-out and setting: in the case of B4 it was 2 fold; in that of B5, 1.1 fold.

The target of the next assay is T5, human FcgRIa extracellular domain, C-terminal His tag (human, UniProt P12314 16-292).
T5 construct: extracellular domain; also called hFcgRIa; FcγRI; not shown: C-terminal His tag
T5 sequence (P12314 16-292): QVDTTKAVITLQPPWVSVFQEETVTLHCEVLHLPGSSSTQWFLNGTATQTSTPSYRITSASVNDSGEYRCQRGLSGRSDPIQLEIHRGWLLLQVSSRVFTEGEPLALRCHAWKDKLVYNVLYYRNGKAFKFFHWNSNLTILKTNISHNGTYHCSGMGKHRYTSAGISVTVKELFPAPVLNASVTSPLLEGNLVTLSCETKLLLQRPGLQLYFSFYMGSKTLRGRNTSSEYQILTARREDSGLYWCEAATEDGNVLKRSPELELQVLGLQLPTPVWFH
The description is as above. As to the method: as §1, §2
Regarding B1, the “KD fold hFcgRIa” value came to 1 fold.
For B2, the “KD fold hFcgRIa” value worked out at 1.3 fold.
The same measure, in the same setting: as for B3, the figure is 1.1 fold.
As to B4, the “KD fold hFcgRIa” value is 0.6 fold.
Still for that read-out and setting: in the case of B5 it was 0.6 fold.

A further assay has as its target T3, human FcgRIIa, allotype R (R131), …. Described as above. The method, then:
as §1, §2
As for B1, the “KD fold hFcgRIIaR” value was found to be 0.9 fold.
Still for that read-out and setting: in the case of B2 it was 2.6 fold.
On the same count and under the same terms, as for B3, the figure is 2.7 fold; as for B4, 2.4 fold.
As for B5, the “KD fold hFcgRIIaR” value was found to be 1 fold.

In the next assay the target is T6, soluble human FcRn (complex of FcRn and beta2-microglobulin) (human, UniProt P55899 partial chain; P61769 partial chain).
T6 construct: extracellular domain;mature
T6 sequence (P55899 24-297, chain 1 of 2): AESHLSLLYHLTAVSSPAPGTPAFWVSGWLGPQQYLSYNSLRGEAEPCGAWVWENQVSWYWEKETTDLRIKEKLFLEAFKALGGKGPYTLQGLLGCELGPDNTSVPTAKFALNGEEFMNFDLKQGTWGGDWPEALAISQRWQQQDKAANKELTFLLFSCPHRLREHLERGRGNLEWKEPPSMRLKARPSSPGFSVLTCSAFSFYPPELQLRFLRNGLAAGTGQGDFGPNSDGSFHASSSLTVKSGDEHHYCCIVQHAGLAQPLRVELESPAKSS
T6 sequence (P61769 21-119, chain 2 of 2, further chain): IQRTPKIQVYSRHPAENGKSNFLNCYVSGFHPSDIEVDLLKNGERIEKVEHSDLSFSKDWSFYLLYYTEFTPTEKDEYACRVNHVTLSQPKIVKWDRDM
Nature of the assay: SPR (Biacore), human FcRn as analyte; pH not given.
Usually Kd stands for the free concentration of one partner at which half of the binding sites on the other are occupied at equilibrium, for simple one-to-one binding. Low readings indicate tighter binding, high ones weaker binding. B3 came in with a Kd of 1900 nM.

Another assay has as its target T1, human FcgRIIa, allotype H (H131), …. Nature of the assay: SPR (Biacore), antibody captured on chip, His-tagged FcgR extracellular domain as analyte, 25 C. As to the method:
as §1, §2
For B1, the affinity, expressed as Kd, was 990 nM.
Same read-out and setting: as for B2, the figure is 390 nM; as for B3, 370 nM; as for B4, 410 nM.
On to B5, for which the affinity, expressed as Kd, was 960 nM.

In a further assay the target is T2, human FcgRIIb extracellular domain, …. Described as above. The method, then: as §1, §2
In turn, B1 registered a Kd of 7000 nM.
For the molecule B2, binding was put at a Kd of 2400 nM.
Same read-out and setting: in the case of B3 it was 2500 nM; in that of B4, 2700 nM.
On the same count and under the same terms, in the case of B5 it was 7100 nM.

The target in the next assay is T4, human FcgRIIIa, allotype V (V158), …. The description is as above. The method, then: as §1, §2
Molecule B1 showed a Kd of 510 nM.
The same measure, in the same setting: in the case of B2 it was 200 nM.
Molecule B3 displayed a Kd of 210 nM.
With B4, binding was characterised by a dissociation constant (Kd) of 250 nM.
Same read-out and setting: as for B5, the figure is 450 nM.

For another assay, the target named is T5, human FcgRIa extracellular domain, …. The assay is described as above. The method, then: as §1, §2
B1: the Kd is 0.16 nM.
As to B2, binding was put at a Kd of 0.13 nM.
On the same count and under the same terms, in the case of B3 it was 0.14 nM; in that of B4, 0.26 nM; in that of B5, 0.25 nM.

The target in another assay is T3, human FcgRIIa, allotype R (R131), …. The assay is described as above. The method, then:
as §1, §2
Turning to B1, binding was put at a Kd of 1700 nM.
Molecule B2 yielded a Kd of 590 nM.
Still for that read-out and setting: in the case of B3 it was 580 nM; in that of B4, 650 nM; in that of B5, 1500 nM.
